Experimental findings from the supplement of paper PMC5655136 are described below.

Values come from read counts of a selection and are noisy.
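Note: shRNA barcodes quantified by deep sequencing of PCR amplicons from cellular DNA, counts expressed as percent of each subpool, ratio averaged over two biological duplicates.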

In one data set the test system is NB7. Briefly: fold depletion of shRNA, plasmid library share / infected cells without Dox share (9 days) (ratio); higher = more depleted after infection (more toxic, leaky expression from a Tet-inducible vector; NB7 is a neuroblastoma line without caspase-8). As to conditions: shRNA pool: CD95L ORF + CD95L 3'UTR + Venus libraries.
AAGTTCAGCGTGTCCGGCGAG: the “fold depletion of shRNA” value is 1.74.
On to GGAAAGTGGCCCATTTAACAG, for which the “fold depletion of shRNA” value came out at 0.507.
Same read-out and setting: with TCTTGCAACAACCTGCCCCTG the figure was 0.694; with CAGATAAGCAAGAGAGATGTT, 1.89.
For the sequence AACCTGCCCCTGAGCCACAAG, the “fold depletion of shRNA” value turned out to be 6.43.
On the same count and under the same terms, with TTTTCGGCTTATATAAGCTCT the figure was 0.711; with GACATGAACCAAGTGGACCTT, 3.89; with AAATGCATATCCTGAGCCATC, 1.01.
Still for that read-out and setting: as for ACCCTGGTGAACCGCATCGAG, the figure is 1.14; as for GGCCAACTTCAAGATCCGCCA, 0.979; as for TGTGTGTGTATGACTAAAGAG, 3.08.
The same measure, in the same setting: as for TCAAGGGGGACTGTCTTTCAG, the figure is 1.56.
For CTGCCCGTGCCCTGGCCCACC, the “fold depletion of shRNA” value was 0.57.
Same read-out and setting: as for AAAAGGAAGACTAGAGGCTTG, the figure is 1.05; as for CAACTCTAATAGTGCTTAAAA, 0.456.
Turning to GGTGTTCTACACTCATCTTAG, the “fold depletion of shRNA” value was determined as 1.12.
In the case of GATTGGGCCTGGGGATGTTTC, the “fold depletion of shRNA” value came to 2.73.
The same measure, in the same setting: with CTTTGTATATTCCAAAGTATA the figure was 0.374.
Same read-out and setting: with GTGAAACTAACAGATAAGCAA the figure was 1.39; with CACTACCAGCAGAACACCCCC, 2.
The same measure, in the same setting: with AGGGTCTTCTTACATGCATTT the figure was 0.539; with TGCCCATCCTGGTCGAGCTGG, 2.06.
On to GCAGATGTGGGCCCGCAGCAG, for which the “fold depletion of shRNA” value is 0.689.
As for GAGAATGTAGATATTGTGAAG, the “fold depletion of shRNA” value amounted to 1.07.
Regarding TCAAGTAAGAAGACATGAACC, the “fold depletion of shRNA” value amounted to 3.97.
TCTGAGCTCTCTCTGGTCAAT: the “fold depletion of shRNA” value turned out to be 2.24.
The same measure, in the same setting: as for AAGAGGCCAATGCCCCACTGG, the figure is 1.3; as for CCGCCGCCACCACTGCCTCCA, 5.61.
Still for that read-out and setting: as for GGTGGCCTTGTGATCAATGAA, the figure is 0.485; as for GGGCTGCCATGTGAAGAGGGA, 0.339; as for AGGATTTAAGGGATGGAAAAG, 2.57.
Still for that read-out and setting: as for GGTGAACCGCATCGAGCTGAA, the figure is 0.589; as for GGAAGACACCTATGGAATTGT, 1.42.
In the case of CTTGTGATCAATGAAACTGGG, the “fold depletion of shRNA” value amounted to 0.845.
On the same count and under the same terms, as for AGGAAAATATGGGTTGCATTT, the figure is 3.64; as for ACTGCACTACTGGGCAGATGT, 3.78.
Consider CCCCTGAAAAAAAGGAGCTGA, for which the “fold depletion of shRNA” value is 0.861.
Regarding CCACCACTACCACCTCCGCCG, the “fold depletion of shRNA” value worked out at 2.27.
For AGTACAACTACAACAGCCACA, the “fold depletion of shRNA” value came to 3.52.
On to ACAGGCCTGTGTCTCCTTGTG, for which the “fold depletion of shRNA” value turned out to be 1.21.
The same measure, in the same setting: with CCTCCAGGCACAGTTCTTCCC the figure was 1.92; with TAATAAGCTAAAGAGGCTGAA, 11.1.
Still for that read-out and setting: with AGCTACCTGGGGGCAGTGTTC the figure was 9.45.
Same read-out and setting: as for CCCTGGTGAACCGCATCGAGC, the figure is 1.46; as for CCTGGTCAAAGGAGGCCACCA, 1.86.

The same data set, now with this note: shRNA pool: CD95 ORF + CD95 3'UTR + Venus libraries.
In the case of AGACTCAGAACTTGGAAGGCC, the “fold depletion of shRNA” value was 1.07.
Still for that read-out and setting: with GTATATGCAATTAGTGTTTGA the figure was 1.23; with AAGTTCAGCGTGTCCGGCGAG, 2.48; with TGGTGCTCATCTTAATGGCCT, 1.23.
The same measure, in the same setting: as for GCCTCCAAGGATGTTTAAAAT, the figure is 1.88.
As for GATGGCCAATTCTGCCATAAG, the “fold depletion of shRNA” value turned out to be 0.555.
On to ATCTAACATATGATTCTGTAG, for which the “fold depletion of shRNA” value was found to be 1.52.
ACCCTGGTGAACCGCATCGAG: the “fold depletion of shRNA” value was determined as 1.29.
The same measure, in the same setting: as for CCTGAAACAGTGGCAATAAAT, the figure is 0.803.
As for GGCCAACTTCAAGATCCGCCA, the “fold depletion of shRNA” value worked out at 0.988.
Turning to AGTCATGACACTAAGTCAAGT, the “fold depletion of shRNA” value was determined as 3.01.
As for CCCTTGTGTTTGGAATTATAA, the “fold depletion of shRNA” value was found to be 1.02.
Take GACATGTCATGAACCCATGTT: the “fold depletion of shRNA” value turned out to be 8.66.
The same measure, in the same setting: as for GTATGTGAACACTGTGACCCT, the figure is 3.04.
The same measure, in the same setting: with CTGCCCGTGCCCTGGCCCACC the figure was 0.612.
With TAAACTGTGAAGATAGTTATA, the “fold depletion of shRNA” value was 0.72.
The same measure, in the same setting: with TATTTTTCCCCCACCCCCGAA the figure was 2.55.
GTGTCATATTATACAATATTT: the “fold depletion of shRNA” value is 1.3.
Same read-out and setting: as for TAACTGCTCTCAGAGAAAGTA, the figure is 4.74; as for GTAAATATATCACCACTATTG, 0.836; as for CACTACCAGCAGAACACCCCC, 1.63.
The same measure, in the same setting: with GACCACTACCAGCAGAACACC the figure was 1.92; with GGAGTGTATGCAGAGGATGAA, 2.66; with AGTACGTAATTAAATAATGTT, 0.945.
On the same count and under the same terms, with TGCCCATCCTGGTCGAGCTGG the figure was 2; with CCCTCCTACCTCTGGTTCTTA, 1.18; with CACTGTGACCCTTGCACCAAA, 2.63.
Turning to GGATTTAGGAATTGCTCTTGT, the “fold depletion of shRNA” value was 1.2.
For the sequence ATATCAGTTACTGAACAGGCA, the “fold depletion of shRNA” value turned out to be 10.8.
For the sequence GGTGAACCGCATCGAGCTGAA, the “fold depletion of shRNA” value is 0.75.
On to AAACAGTGGCAATAAATTTAT, for which the “fold depletion of shRNA” value was determined as 0.833.
As to GTTACTGAACAGGCAGGCCAC, the “fold depletion of shRNA” value came out at 0.628.
Still for that read-out and setting: with GAATTGCTCTTGTCATACCCC the figure was 1.24; with GCCAATCTTTGTACTCTTGCA, 0.548; with ACTTGAGTAAATATATCACCA, 0.807.
Regarding GTTTGGAGATACTAACTGCTC, the “fold depletion of shRNA” value turned out to be 4.44.
Turning to TTATCTGATGTTGACTTGAGT, the “fold depletion of shRNA” value was found to be 6.1.
As for ACTGCCCTTAGAAATTCTAGC, the “fold depletion of shRNA” value came out at 1.27.
On to TGCCTTGGTGCTCATCTTAAT, for which the “fold depletion of shRNA” value was found to be 3.53.
For CTGCACAGTCAATGGGGATGA, the “fold depletion of shRNA” value worked out at 0.818.
Take GTGCAGAATTTAAATAAGGCT: the “fold depletion of shRNA” value is 0.95.
In the case of AAGATAGTTATAAACTGAAGC, the “fold depletion of shRNA” value is 0.895.
Same read-out and setting: as for GTATGAATGTAATCAGTGTAT, the figure is 1.19; as for CAAATGTCTATCCACAGGCTA, 2.13; as for TATTAAATGTGAATTTTAAGA, 1.13.
Same read-out and setting: with CATAAGCCCTGTCCTCCAGGT the figure was 0.831; with ACATATGATTCTGTAGTATGA, 1.11; with AATATTTCAATTGTGAATTCA, 1.08.
On the same count and under the same terms, with AAGGCCTGCATCATGATGGCC the figure was 0.503.
For the sequence CACCAAAAAATACTTAATAGT, the “fold depletion of shRNA” value is 0.792.
Turning to GCAAGCTGCCCGTGCCCTGGC, the “fold depletion of shRNA” value turned out to be 1.71.
The same measure, in the same setting: with TCTCAGGCATCAAAAGCATTT the figure was 5.83; with AAAATCTAGTTGGGAAAACAA, 2.14.
As to CCCTGGTGAACCGCATCGAGC, the “fold depletion of shRNA” value was 1.66.
